Holding throughout (assay): Primary Screen for Target Class Profiling of Small Molecule Inhibitors of Methyltransferases
Assay [1] addresses Glycine N-methyltransferase (Homo sapiens) (UniProt Q14749). Conditions: purified enzyme, MTase-Glo SAH luminescence; measured here: GNMT inhibition; at 40 µM; stronger effect = lower value. Put shortly: (§1)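 Each enzyme was assayed with SAM and its substrate. SAH formation detected by MTase-Glo luminescence; single-point 40 uM screen[…].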
In assay [2] the target is Guanidinoacetate N-methyltransferase (Homo sapiens) (UniProt Q14353). Conditions: purified enzyme, MTase-Glo SAH luminescence; measured here: GAMT inhibition; at 40 µM; stronger effect = lower value. Put shortly: as §1
The target in assay [3] is Histamine N-methyltransferase (Homo sapiens) (UniProt P50135). Conditions: purified enzyme, MTase-Glo SAH luminescence; measured here: HNMT inhibition; at 40 µM; stronger effect = lower value. Put shortly: as §1
For assay [4], the target named is Nicotinamide N-methyltransferase (Homo sapiens) (UniProt P40261). Conditions: purified enzyme, MTase-Glo SAH luminescence; measured here: NNMT inhibition; at 40 µM; stronger effect = lower value. An outline of the steps:
as §1

In assay [5] the target is Phenylethanolamine N-methyltransferase (Homo sapiens) (UniProt P11086). Conditions: purified enzyme, MTase-Glo SAH luminescence; measured here: PNMT inhibition; at 40 µM; stronger effect = lower value. An outline of the steps:
as §1

The structures appear in SMILES notation. The list shows a part of the results. Shown are side measurements of this screen, not its main read-out; they come without a call.
% is set by controls: 0 for no effect and ±100 for the full control effect.

Take `Cc1coc2c1C(=O)C(=O)c1c-2ccc2c1CCCC2(C)C`: the activity change, negative = inhibition in assay [1] was -50.6%; in assay [2] it was -9.19%; in assay [3], -17.7%; in assay [4] it was -27.1%; in assay [5], -36.5%.
`CCc1cc2c(cc3n2CC(C)(C(=O)NC2CCC(C)CC2)N(CCc2ccccc2)C3=O)s1` (stereo not given): the activity change, negative = inhibition is 2.84% in assay [1]; 0.891% in assay [2]; 4.76% in assay [3]; -1.81% in assay [4]; 1.3% in assay [5].
For `COc1ccc(C(=O)N2CCC(C3CCN(S(C)(=O)=O)CC3)C2)cc1OC` (stereo not given) the same measures were -1.94%, 2.23%, 0.825%, -1.71% and 15.2%.
For `Cc1cn2cc(C(=O)N(C)CCO)cc(N[C@@H]3CCOc4cccc(C)c43)c2n1` the same measures were -4.45%, -6.33%, 2.37%, -17.5% and -12.6%.
In the case of `CN1C(=O)c2cc(C(=O)NCc3ccccc3Cl)nn2CC1(C)C(=O)NCc1ccccc1` (stereo not given), the activity change, negative = inhibition turned out to be 8.56% in assay [1]; 0% in assay [2]; 5.64% in assay [3]; 10.9% in assay [4]; 3.59% in assay [5].
For `O=C(COc1ccc2c(-c3ccccc3)cc(=O)oc2c1)OCc1ccccc1` the same measures were 2.45%, 1.34%, 2.48%, -0.363% and -3.73%.
Regarding `C[C@@H]1CC[C@]2(C(=O)O)CC[C@]3(C)C(=CCC4[C@]5(C)C(CC[C@]43C)C(C)(C)[C@@H](O)[C@H](O)[C@@H]5O)C2[C@]1(C)O` (stereo not given in full), the activity change, negative = inhibition in assay [1] is 4.67%; in assay [2], 11.4%; in assay [3], 11.2%; in assay [4] it was -1.79%; in assay [5], 8.41%.
Turning to `CC(C)(C)n1nc(-c2cccc3ccccc23)c2c(N)ncnc21`, the activity change, negative = inhibition in assay [2] was 6.87%; in assay [4], -29%; in assay [5] it was 4.47%.
Turning to `COCCN1Cc2nc(NCc3ccccc3)ccc2OCC1=O`, the activity change, negative = inhibition was -11.7% in assay [1]; -1.53% in assay [2]; -0.431% in assay [3]; 1.23% in assay [4]; 1.89% in assay [5].
For `COc1cc(C(=O)O)ccc1NC(=O)C1NC(CC(C)(C)C)C(C#N)(c2ccc(Cl)cc2F)C1c1cccc(Cl)c1F` (stereo not given), the activity change, negative = inhibition was -9.26% in assay [1] and -5.34% in assay [3].
For the compound `O=C(CCCc1nnc2n3nc(-c4ccccc4)nc3c3ccccc3n12)N1CCN(Cc2ccccc2)CC1`, the activity change, negative = inhibition was -4.98% in assay [1]; 4.77% in assay [2]; -0.395% in assay [3]; 5.49% in assay [4]; -6.65% in assay [5].
The matching figures for `COc1ccc(CC(=O)N2Cc3ccccc3CC23CCCN(C(=O)CN)C3)cc1` (stereo not given): -5.36%, -1.93%, -4.31%, -11.2% and -11.5%.
As to `CC1=CC(=O)C2C(C)(C)CCCC2(C)C12CCC1(COC(=O)C1)O2` (stereo not given), the activity change, negative = inhibition in assay [1] is 1.2%; in assay [2], -4.69%; in assay [3] it was 7.2%; in assay [4] it was -13.4%; in assay [5] it was 0.849%.
For `Cc1c(CC(=O)N(C)C(C)C)c2c(n1Cc1ccccc1F)CCCC2=O` the same measures were -2.9%, -1.22%, -2.44%, -6.35% and -1.04%.
In the case of `COC[C@@H]1CN(c2ncccn2)C[C@H]1C(=O)NCc1ccccc1OC`, the activity change, negative = inhibition is -0.293% in assay [1]; -4.71% in assay [2]; -0.289% in assay [3]; -6.9% in assay [4]; 3.89% in assay [5].
The matching figures for `CC(C)COC(=O)c1ccc2c(c1)C1C=CCC1C(c1ccc(Cl)cc1)N2` (stereo not given): -15.5%, -2.98%, -9.93%, -5.88% and -10.6%.
For `COc1ccc(CN2C(=O)c3cc4sccc4n3CC2(C)C(=O)NC2CCCC2)cc1` (stereo not given), the activity change, negative = inhibition in assay [1] was -0.483%; in assay [2] it was 0.291%; in assay [3] it was 1.22%; in assay [4] it was -3.75%; in assay [5], -2.58%.
Regarding `CCN1CCN(c2nc3c(S(=O)(=O)c4ccccc4)nnn3c3ccc(Cl)cc23)CC1`, the activity change, negative = inhibition is 2.24% in assay [1]; 0% in assay [2]; -12.6% in assay [3]; 2% in assay [4]; 1.92% in assay [5].
For `COc1cccc(CNC(=O)Cn2c(=O)oc3cc(S(=O)(=O)N4CCCC4)ccc32)c1` the same measures were -3.71%, 1.02%, 5.66%, 1.44% and -4.25%.
As to `CCC(C)NC(=O)CSc1nnc2n(Cc3ccccc3)c(=O)c3ccc(C(=O)NC(C)C)cc3n12` (stereo not given), the activity change, negative = inhibition in assay [1] is -0.613%; in assay [2], 4.94%; in assay [3] it was 3.27%; in assay [4], 2.86%; in assay [5] it was 1.66%.
Turning to `COc1ccc(-c2nc(C3CC(=O)N(c4ccc(C)cc4)C3)no2)cn1` (stereo not given), the activity change, negative = inhibition was -3.16% in assay [1]; -3.13% in assay [2]; -0.669% in assay [3]; -5.53% in assay [4]; -0.091% in assay [5].
Consider `Cc1ccccc1CN1C(=O)c2ccc(-c3ccccc3)n2CC1(C)C(=O)NC1CCC(C)CC1` (stereo not given), for which the activity change, negative = inhibition came out at 6.1% in assay [1]; 0.122% in assay [2]; 2.13% in assay [3]; 3.56% in assay [4]; 2.2% in assay [5].
For `O=C(OCc1ccccc1)N1CCOCC12CCN(Cc1c[nH]c3ccccc13)CC2` the same measures were -9.24%, -4.92%, -57.8%, -18.4% and -13.1%.
For `Cc1c(Cl)cccc1N1C(=O)c2cc3sccc3n2CC1(C)C(=O)NC1CCCCC1` (stereo not given) the same measures were 2.2%, 0%, 3.69%, 2.49% and 1.24%.
Take `Cc1cc2[nH]c(=O)[nH]c2cc1S(=O)(=O)N1CCN(c2cccc(Cl)c2)CC1`: the activity change, negative = inhibition in assay [1] was 1.66%; in assay [2], 1.29%; in assay [3], 7.38%; in assay [4], -7.73%; in assay [5] it was 4.32%.
The matching figures for `N#C/C(=C\c1ccc(O)c(O)c1)C(=O)NCCc1ccccc1`: -12.5%, 7.88%, 0.169%, -41.8% and 8.67%.
On to `CC1[C@@H](O)[C@@H](O)C2[C@]3(C)C(C[C@H]4OC(=O)[C@H](O)[C@]1(O)[C@@]24C)C(C)(O)C[C@H](O)[C@H]3O` (stereo not given in full), for which the activity change, negative = inhibition in assay [1] was found to be 1.41%; in assay [2] it was 16.3%; in assay [3] it was 12%; in assay [4], 4.09%; in assay [5], 7.61%.
The matching figures for `COc1ccc(CCc2nc3nccc(-c4ccncc4)n3n2)cc1`: -14.9%, -12.6%, -6.12%, -16% and -9.22%.
For `CCCn1c(=O)c2ccc(C(=O)NCC(C)C)cc2n2c(=O)n(CC(=O)Nc3cc(C)cc(C)c3)nc12` the same measures were 0.053%, 4.6%, -0.346%, -0.631% and 1.98%.
`Cc1cccc(CN2CCCC(C(=O)Nc3cccc(-n4cccn4)c3)C2)n1` (stereo not given): the activity change, negative = inhibition is -5.19% in assay [1]; 0.267% in assay [2]; -3.7% in assay [3]; 0.533% in assay [4]; 3.46% in assay [5].

(Values after PubChem BioAssay AID1745853 (National Center for Advancing Translational Sciences (NCATS), 2022).)
